Test results: PMC11268115
No constants are given. Whether binding was seen depends on the method and setting. Binding seen in cells or lysates may run through a third protein. Some entries that bind do so weakly or less than the wild type. Where a sequence is shown, tags or fusion partners need not be part of it.

By UniProt entry, the sequences of proteins in these tests, tags left out.
UniProt O15392: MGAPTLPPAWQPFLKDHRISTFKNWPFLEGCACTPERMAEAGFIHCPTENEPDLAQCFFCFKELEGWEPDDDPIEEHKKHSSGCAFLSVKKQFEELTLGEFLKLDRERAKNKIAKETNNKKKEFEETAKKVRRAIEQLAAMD

Key:
Assay in all cases: co-IP; HEK-293 cells cotransfected with tagged plasmids, lysed after 24 h in cell lysis buffer with protease inhibitors; immunoprecipitation with Myc-Tag, HA-Tag or anti-Flag (M2) magnetic beads, Western blot of the tags
[1] = target: T1, Myc-USP36 (1–420 aa), N-terminal USP domain (UniProt Q9P275)
T1 sequence: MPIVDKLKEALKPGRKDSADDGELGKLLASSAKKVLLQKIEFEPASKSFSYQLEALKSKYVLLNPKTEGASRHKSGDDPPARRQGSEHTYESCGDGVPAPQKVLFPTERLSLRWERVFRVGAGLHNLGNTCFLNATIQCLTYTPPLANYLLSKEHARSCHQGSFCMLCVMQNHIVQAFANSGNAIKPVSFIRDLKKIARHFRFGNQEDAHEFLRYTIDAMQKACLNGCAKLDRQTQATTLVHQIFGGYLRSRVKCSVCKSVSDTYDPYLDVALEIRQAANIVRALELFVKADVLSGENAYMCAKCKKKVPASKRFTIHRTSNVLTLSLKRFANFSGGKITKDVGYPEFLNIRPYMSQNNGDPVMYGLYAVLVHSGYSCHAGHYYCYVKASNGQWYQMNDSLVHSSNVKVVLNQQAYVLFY

[2] = target: T2, Myc-USP36 (801–1121 aa), C-terminal domain (UniProt Q9P275)
T2 sequence: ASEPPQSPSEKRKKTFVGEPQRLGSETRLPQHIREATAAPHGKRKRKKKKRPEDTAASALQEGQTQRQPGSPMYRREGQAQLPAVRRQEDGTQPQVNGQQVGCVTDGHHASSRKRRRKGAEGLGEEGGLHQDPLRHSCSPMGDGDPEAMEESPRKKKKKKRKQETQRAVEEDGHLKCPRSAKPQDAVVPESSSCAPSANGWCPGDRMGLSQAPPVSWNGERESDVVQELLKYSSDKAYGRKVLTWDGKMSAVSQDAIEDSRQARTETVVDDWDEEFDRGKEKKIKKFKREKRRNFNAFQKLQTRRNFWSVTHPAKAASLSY

Myc-USP36 (1–800 aa) = target: T3, Myc-USP36 (1–800 aa) (UniProt Q9P275)
T3 sequence: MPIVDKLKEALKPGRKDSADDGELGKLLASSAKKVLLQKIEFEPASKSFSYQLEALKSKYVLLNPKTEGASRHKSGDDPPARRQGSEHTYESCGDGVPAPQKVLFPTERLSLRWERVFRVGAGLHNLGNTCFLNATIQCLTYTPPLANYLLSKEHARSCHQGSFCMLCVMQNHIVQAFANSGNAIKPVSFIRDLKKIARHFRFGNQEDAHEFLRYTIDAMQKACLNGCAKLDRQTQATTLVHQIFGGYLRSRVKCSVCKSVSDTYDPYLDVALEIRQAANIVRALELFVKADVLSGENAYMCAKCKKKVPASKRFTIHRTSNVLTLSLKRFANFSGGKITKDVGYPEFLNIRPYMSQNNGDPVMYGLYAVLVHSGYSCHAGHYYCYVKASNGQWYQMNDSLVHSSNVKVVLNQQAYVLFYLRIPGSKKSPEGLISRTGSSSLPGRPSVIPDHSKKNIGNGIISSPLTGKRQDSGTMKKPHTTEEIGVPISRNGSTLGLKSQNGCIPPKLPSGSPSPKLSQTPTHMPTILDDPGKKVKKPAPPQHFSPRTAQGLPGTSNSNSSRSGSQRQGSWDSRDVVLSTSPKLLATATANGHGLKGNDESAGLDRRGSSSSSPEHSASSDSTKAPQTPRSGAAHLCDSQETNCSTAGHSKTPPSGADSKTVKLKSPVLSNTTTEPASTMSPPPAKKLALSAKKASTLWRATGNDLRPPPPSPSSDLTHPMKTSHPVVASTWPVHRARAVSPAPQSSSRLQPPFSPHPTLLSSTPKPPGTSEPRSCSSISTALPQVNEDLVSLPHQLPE

[3] = target: T4, Myc-USP36 (ubiquitin-specific protease 36), full length, WT (UniProt Q9P275)
T4 sequence: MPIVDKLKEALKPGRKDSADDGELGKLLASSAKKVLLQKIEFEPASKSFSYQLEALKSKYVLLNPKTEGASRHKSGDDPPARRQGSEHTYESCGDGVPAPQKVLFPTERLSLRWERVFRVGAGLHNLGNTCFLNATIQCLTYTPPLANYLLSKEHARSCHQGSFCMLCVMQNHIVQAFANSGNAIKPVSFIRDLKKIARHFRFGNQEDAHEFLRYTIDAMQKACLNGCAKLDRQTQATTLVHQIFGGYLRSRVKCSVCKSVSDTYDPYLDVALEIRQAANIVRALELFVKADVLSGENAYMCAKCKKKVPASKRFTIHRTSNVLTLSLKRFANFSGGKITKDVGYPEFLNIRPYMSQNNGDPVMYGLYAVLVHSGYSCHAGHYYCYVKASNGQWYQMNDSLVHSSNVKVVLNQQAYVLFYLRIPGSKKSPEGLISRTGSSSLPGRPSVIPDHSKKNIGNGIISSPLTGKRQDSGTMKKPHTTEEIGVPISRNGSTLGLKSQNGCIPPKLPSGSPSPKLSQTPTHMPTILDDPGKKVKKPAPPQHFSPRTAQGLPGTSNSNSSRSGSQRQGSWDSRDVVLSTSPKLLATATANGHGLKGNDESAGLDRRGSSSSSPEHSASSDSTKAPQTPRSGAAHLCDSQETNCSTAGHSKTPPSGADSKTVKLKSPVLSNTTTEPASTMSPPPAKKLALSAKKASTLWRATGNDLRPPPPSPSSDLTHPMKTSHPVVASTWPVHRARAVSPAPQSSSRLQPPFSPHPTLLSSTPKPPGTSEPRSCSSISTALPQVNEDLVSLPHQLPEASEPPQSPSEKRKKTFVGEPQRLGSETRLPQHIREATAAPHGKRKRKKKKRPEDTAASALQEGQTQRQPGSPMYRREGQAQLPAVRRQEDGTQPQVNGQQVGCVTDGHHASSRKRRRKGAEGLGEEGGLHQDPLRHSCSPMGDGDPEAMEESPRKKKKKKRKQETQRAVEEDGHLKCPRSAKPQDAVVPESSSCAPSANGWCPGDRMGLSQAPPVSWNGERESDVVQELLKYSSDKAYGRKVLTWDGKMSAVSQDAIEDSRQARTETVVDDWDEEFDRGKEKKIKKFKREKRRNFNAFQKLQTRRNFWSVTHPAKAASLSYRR

Question: Which binding [1] does the source give for HA-survivin (from UniProt O15392 1-142) here?
Answer: The binding was “binds”.

Question: And the binding [2]?
Answer: Its binding is “no binding”.

Question: What about the binding (Myc-USP36 (1–800 aa)) of the same substance?
Answer: The binding was “binds”.

Question: What about the binding [3] of the same substance?
Answer: The binding was “binds”.
